The source of these data is ChEMBL document CHEMBL4428074, “The discovery of 2,5-isomers of triazole-pyrrolopyrimidine as selective Janus kinase 2 (JAK2) inhibitors versus JAK1 and JAK3” (Bioorg Med Chem, 2016).

The IC50 is the concentration needed to halve the response being measured. A lower IC50 goes with greater potency in that assay.

The target in this test is Tyrosine-protein kinase JAK2 (Homo sapiens, UniProt O60674). The format is cell-based, Sf21.
Chain of Tyrosine-protein kinase JAK2 (O60674 whole entry): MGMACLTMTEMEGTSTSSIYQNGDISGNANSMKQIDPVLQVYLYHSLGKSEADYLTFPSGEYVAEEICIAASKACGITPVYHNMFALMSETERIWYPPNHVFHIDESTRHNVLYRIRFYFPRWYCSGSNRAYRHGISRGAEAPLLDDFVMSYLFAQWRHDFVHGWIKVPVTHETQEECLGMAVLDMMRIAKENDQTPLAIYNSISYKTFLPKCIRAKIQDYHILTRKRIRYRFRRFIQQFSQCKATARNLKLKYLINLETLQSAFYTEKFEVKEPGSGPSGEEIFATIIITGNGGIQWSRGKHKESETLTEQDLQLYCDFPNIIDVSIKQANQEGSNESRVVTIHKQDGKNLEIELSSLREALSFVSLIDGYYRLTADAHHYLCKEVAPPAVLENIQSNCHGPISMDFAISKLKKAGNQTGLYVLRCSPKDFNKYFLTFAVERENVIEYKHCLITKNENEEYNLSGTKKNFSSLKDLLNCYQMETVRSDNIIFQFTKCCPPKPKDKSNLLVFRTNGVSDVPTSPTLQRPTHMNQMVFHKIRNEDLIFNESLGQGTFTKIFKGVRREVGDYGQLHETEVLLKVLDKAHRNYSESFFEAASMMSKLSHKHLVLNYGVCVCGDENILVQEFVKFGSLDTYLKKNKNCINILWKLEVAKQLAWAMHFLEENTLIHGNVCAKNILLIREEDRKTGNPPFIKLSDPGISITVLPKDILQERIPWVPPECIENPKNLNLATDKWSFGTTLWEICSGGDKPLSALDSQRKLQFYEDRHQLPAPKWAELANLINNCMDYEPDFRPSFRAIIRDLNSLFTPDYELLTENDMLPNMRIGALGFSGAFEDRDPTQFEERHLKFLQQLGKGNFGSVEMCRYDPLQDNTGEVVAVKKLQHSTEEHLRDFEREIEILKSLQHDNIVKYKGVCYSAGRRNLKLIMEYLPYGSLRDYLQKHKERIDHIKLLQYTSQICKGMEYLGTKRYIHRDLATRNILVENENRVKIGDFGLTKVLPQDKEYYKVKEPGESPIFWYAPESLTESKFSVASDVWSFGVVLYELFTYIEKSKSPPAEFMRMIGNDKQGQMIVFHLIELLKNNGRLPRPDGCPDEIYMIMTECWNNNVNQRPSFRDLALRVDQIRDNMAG
On to `Cc1nn(CC2CCC2)nc1-c1ncnc2[nH]ccc12`, for which the IC50 worked out at 62.7 nM.
In turn, `C=CCn1nc(C)c(-c2ncnc3[nH]ccc23)n1` gave an IC50 of 511 nM.
With `Cc1nn(CCCO)nc1-c1ncnc2[nH]ccc12`, the IC50 turned out to be 156 nM.
Consider `Cc1nn(CCCCC#N)nc1-c1ncnc2[nH]ccc12`, for which half-maximal inhibition (IC50) required 63.6 nM.
As to `Cc1nn(CCCC(F)(F)F)nc1-c1ncnc2[nH]ccc12`, the midpoint of inhibition, the IC50, lay at 96.3 nM.
`Cc1nn(CCCCCC#N)nc1-c1ncnc2[nH]ccc12` registered an IC50 of 165 nM.
With `COCCn1nc(C)c(-c2ncnc3[nH]ccc23)n1`, the IC50 is 210 to 310 nM.
Compound `C=C(C)Cn1nc(C)c(-c2ncnc3[nH]ccc23)n1` came in with an IC50 of 67.4 nM.
The compound `Cc1nn(CC2CCCC2)nc1-c1ncnc2[nH]ccc12` showed an IC50 of 71.8 nM.
With `Cc1nn(CCCC#N)nc1-c1ncnc2[nH]ccc12`, the midpoint of inhibition, the IC50, lay at 73.5 nM.
The value for `Cc1nn(CC2CC2)nc1-c1ncnc2[nH]ccc12` was 41.9 nM; that for `CC(C)=CCn1nc(C)c(-c2ncnc3[nH]ccc23)n1` was 786 nM.
